According to PubChem BioAssay AID488969 (Vanderbilt High Throughput Screening Facility, 2010):
In all, about 110,000 compounds were measured (“z-score”: median about -0.1, highest 2% from about 2 on). The list shows a part of the results.

target: Metabotropic glutamate receptor 8 (Rattus norvegicus) (UniProt P70579); test: mGluR8 Gi/Go-coupled signaling modulation – cell-based, rat, thallium flux, HTS, primary screen (AID 488969); settings: HEK293 rat mGluR8, GIRK (G protein-gated inwardly rectifying potassium channel) thallium flux, FluoZin2; at 10 µM; stronger effect = higher value; submaximal glutamate (EC20) added with thallium
Chain of UniProt P70579 (P70579 whole entry, looked up): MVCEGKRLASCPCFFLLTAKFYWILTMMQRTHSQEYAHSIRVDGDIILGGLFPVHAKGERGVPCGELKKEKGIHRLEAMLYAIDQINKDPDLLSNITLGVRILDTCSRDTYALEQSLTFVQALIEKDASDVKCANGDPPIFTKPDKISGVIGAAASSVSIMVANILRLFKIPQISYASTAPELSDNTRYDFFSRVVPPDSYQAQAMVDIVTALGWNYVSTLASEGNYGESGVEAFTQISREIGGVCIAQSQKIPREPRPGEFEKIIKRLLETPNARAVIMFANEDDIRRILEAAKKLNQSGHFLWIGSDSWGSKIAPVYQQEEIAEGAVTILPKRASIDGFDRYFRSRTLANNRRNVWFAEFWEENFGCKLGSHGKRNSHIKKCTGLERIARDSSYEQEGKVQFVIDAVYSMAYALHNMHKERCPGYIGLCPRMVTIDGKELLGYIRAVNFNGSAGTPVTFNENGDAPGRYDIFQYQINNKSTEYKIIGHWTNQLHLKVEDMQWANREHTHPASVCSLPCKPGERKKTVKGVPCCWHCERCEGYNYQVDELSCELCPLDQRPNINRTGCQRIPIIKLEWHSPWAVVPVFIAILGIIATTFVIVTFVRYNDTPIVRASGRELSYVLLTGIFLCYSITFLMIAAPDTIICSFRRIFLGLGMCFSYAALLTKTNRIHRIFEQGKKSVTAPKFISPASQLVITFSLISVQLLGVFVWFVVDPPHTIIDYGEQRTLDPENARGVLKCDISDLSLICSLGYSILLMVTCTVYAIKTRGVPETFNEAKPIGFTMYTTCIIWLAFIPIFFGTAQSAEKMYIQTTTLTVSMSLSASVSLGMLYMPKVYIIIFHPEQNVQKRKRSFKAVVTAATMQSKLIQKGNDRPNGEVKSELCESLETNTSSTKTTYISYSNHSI

SMILES	z-score
CCOC(=O)c1cnc2nc(NCc3ccc(OCc4ccccc4)cc3)[nH]n2c1=O	-0.297
COc1ccc(CCN(Cc2nc3ccccc3c(=O)[nH]2)C(=O)c2ccco2)cc1	0.0149
Cc1sc(-n2c(C)cc(C=O)c2C)c(C(=O)O)c1C	0.137
CCOC(=O)c1cnc(-n2nc(C)cc2C)nc1NCc1ccc2c(c1)OCO2	0.347
Cc1cc(C(=O)Nc2ccccc2C#N)n(-c2ccccc2)n1	1.15
Cc1ccc(S(=O)(=O)N2CCN(CC(=O)N/N=C\c3ccc(Cl)c([N+](=O)[O-])c3)CC2)cc1	-0.0326
COc1ccc(-c2nc3ccccc3c(=O)n2NC(=O)Cc2ccccc2)cc1	0.0968
COc1ccc(-c2cc3ccccc3n2CC(O)CN2CCN(CCO)CC2)cc1 (centres undefined)	-0.753
CCOC(=O)C1CCCN(CCC(=O)Nc2ccc(C)cc2)C1 (centres undefined)	0.774
O=c1c2c3nc4ccccc4nc3n(Cc3ccccc3)c2ncn1Cc1ccco1	0.0939
CCOC(=O)c1sc(Nc2nc3c(F)cccc3s2)cc1C	0.23
CC(C)NC(=O)CC(=O)N/N=C/c1ccc(Br)cc1	0.688
CS(=O)(=O)c1cc([N+](=O)[O-])c(Sc2nc3ccccc3[nH]2)c([N+](=O)[O-])c1	-0.469
Cc1cccc(-n2nc3c([n+]2[O-])CCc2nonc2-3)c1C	-0.912
O=C(NCc1ccco1)c1cc2nc(C3CC3)cc(C(F)(F)F)n2n1	-0.797
Cc1ccc(NC(=O)c2c(C)nn(-c3ccccc3)c2Cl)cc1	-0.247
COC(=O)c1ccc(N2CCN(S(=O)(=O)c3ccc4ccccc4c3)CC2)c([N+](=O)[O-])c1	-0.111
CCn1c2ccccc2c2nnc(SCC(=O)N(C)C3CCS(=O)(=O)C3)nc21 (centres undefined)	-0.188
CCOC(=O)C(/C=C(\C#N)C(=O)OCC)=C(/N)N1CCN(c2ccc(OC)cc2)CC1	0.803
Cc1cc(NC(=O)c2cc(-c3ccco3)on2)no1	0.16
CC(C)NS(=O)(=O)c1ccc(OCC(=O)NCc2ccccc2)cc1	0.622
COC(=O)c1cc2c(-c3ccccc3)cc3ccccn3c-2c1C(=O)OC	1.15
O=C1c2ccccc2-c2nnc(-c3ccccc3)cc21	0.248
O=C(NCC(c1cccnc1)N1CCN(c2ccc(F)cc2)CC1)c1ccc(F)cc1 (centres undefined)	0.0352
CSc1nc2ccc(S(=O)(=O)Nc3c(C)n(C)n(-c4ccccc4)c3=O)cc2s1	-0.599
CCOC(=O)Cn1c(=O)oc2cc(S(=O)(=O)N(C)Cc3ccco3)ccc21	0.193
O=C(Nc1nc(-c2ccc(S(=O)(=O)N3CCCC3)cc2)cs1)C1COc2ccccc2O1 (centres undefined)	-0.431

SMILES	z-score
Cc1ccc2nc3c(cc2c1)CN(Cc1ccco1)C(=NCC1CCCO1)S3 (centres undefined)	0.693
CCOC(=O)N1CCN(C(=O)CN(c2ccc(OC)c(OC)c2)S(C)(=O)=O)CC1	-0.034
O=C1C2C3C=CC([C@@H]2C(=O)N1C1CCCCC1)[C@H]1C(=O)N(C2CCCCC2)C(=O)C31 (some centres undefined)	-0.00981
CN(C)S(=O)(=O)N1CCN(Cc2ccccc2)CC1	0.117
CC1CCCN(CCC(=O)c2ccc(Br)cc2)C1 (centres undefined)	-0.844
O=C(Nc1cc2c(oc1=O)CCCC2=O)c1ccccc1	-0.273
Cc1cc(=O)n2[nH]c(-c3ccccc3Cl)cc2n1	-0.0492
Cc1cccc(NC(=S)NNC(=O)c2nn(C)cc2Cl)c1	0.00471
CC1=NN(Cc2ccccc2)C(=O)C1C(c1ccccc1)C(C#N)C#N (centres undefined)	-0.147
O=C(CCCN1C(=O)C2CCCCN2C1=O)N1CCN(c2ccc([N+](=O)[O-])cc2)CC1 (centres undefined)	0.169
COc1ccc(CCN(Cc2cc3cc(C)cc(C)c3nc2Cl)C(=O)C2CC2)cc1	0.324
CCOC(=O)Nc1ccc2c(c1)N(C(=O)CCN1CCOCC1)c1ccccc1S2=O (centres undefined)	-0.405
Cc1cc(NC(=O)CSc2nnc(-c3cccnc3)n2C2CCCCC2C)no1 (centres undefined)	0.291
CCCCNC(=O)NS(=O)(=O)c1ccc(NS(=O)(=O)c2ccccc2)cc1	-0.028
CCOC(=O)c1sc(C)c(C(=O)NCC(C)(C)CN(C)C)c1N	0.753
COc1cc(/C=N/Nc2ccc3ccccc3c2)ccc1OC(=O)c1ccco1	-0.378
O=C(/C=C/c1ccccc1)Nc1ncn[nH]1	-0.388
CCCc1ccc(Oc2cc(N3CCOCC3)nc(-c3ccccc3)n2)cc1	-0.257
COc1ccc(-n2nc3c(c2NC(=O)c2ccc(Br)cc2)CS(=O)C3)cc1 (centres undefined)	-0.0829
c1ccc2c(CSCc3nc4ccccc4[nH]3)cccc2c1	-0.202
CCc1nc(N2CCCC(C)C2)c2oc3ccccc3c2n1 (centres undefined)	0.0468
CC1=CC(c2ccccc2)=Nc2ccc(C)cc2N1	-0.179
Clc1ccc(/C=N/NC2=Nc3cccc4cccc2c34)cc1	0.161
Nc1nc(SCc2ccccc2Cl)n[nH]1	0.109
Cc1ccc(S(=O)(=O)N2CCSC2c2ccco2)cc1 (centres undefined)	-0.143
O=c1c(Cl)c(N/N=C/c2ccc(Br)cc2)cnn1-c1ccccc1	-0.0885
O=C(CSc1nnc(-c2ccncc2)o1)NCc1ccc(Cl)cc1	-0.143
